# Source: patent publication US20170335016A1 (Kyowa Kirin, published 2017)
# Molecular target: T1, human-CD28-Fc fusion protein (human, UniProt P10747 19-152)
# T1 construct: also called Fc fusion protein of the human-CD28 extracellular domain with IgG; hECD28-Fc
# Experiment: ELISA as in Example 19, human-CD28-Fc coated
# Procedure: The human-CD4O-Fc fusion protein and the human-CD28-Fc fusion protein were adjusted to give a concentration of 1 μg/mL using coating buffer (50 mM carbonate buffer, pH 9). To a well, 50 μL/well of the obtained human-CD4O-Fc fusion prostein or the obtained human-CD28-Fc fusion protein was added into the Maxisorp Plate (manufactured by Nalge Nunc International) respectively, and incubated at 4° C. overnight to be immobilized. Then, 200 μL/well of blocking reagent (SuperBlock (registered trademark) Blocking Buffer, manufactured by Pierce Protein Research) was added to the well, followed by incubation at room temperature for 30 minutes for blocking. Then, 50 μL/well of the culture supernatant comprising each antibody obtained in above Examples was added to the well followed by incubation at room temperature for 1 hour. After washing three times with Washing buffer (0.1% Tween20-TBS), Affinity Isolated Antibody HRP Conjugated Goat F(ab)₂ anti-Human κ (manufactured by EY Laboratories Inc) was diluted with assay diluent (0.1% Tween20-TBS containing Block Ace manufactured by Dainippon Sumitomo Pharma Co. Ltd. by 10%). Then, 50 μL of the obtained solution was added to each well followed by incubation at a room temperature for 1 hour. After washing three times with washing buffer, 50 μL of TMB (manufactured by Dako) coloring substrate solution was added to each well, followed by incubation in a dark room at room temperature. After developping color, 0.5 M vitriol (50 μL/well) was added to stop the reaction. The absorbance at the wavelength of 450 nm was measured with a microplate reader (SPECTRAMAX190, manufactured by Molecular Devices Inc).
# The binding of the produced antibody comprising two (CD40 and CD28) recognition sites for each antigen was measured in the same manner as Example 19.
# T1 sequence (P10747 19-152): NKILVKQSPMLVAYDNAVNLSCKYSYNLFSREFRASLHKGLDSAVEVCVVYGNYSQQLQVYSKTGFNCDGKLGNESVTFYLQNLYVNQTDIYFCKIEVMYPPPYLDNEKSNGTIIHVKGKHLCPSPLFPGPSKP
row,binding result,Binder
1,binds,"multivalent antibody 281VL4-CH1-281 (bispecific antibody, Anti-CD28 site N-terminal, anti-CD40 site C-terminal; N5KG4PE (IgG4) vector; Entries probably still carry signal peptides) heavy: EVQLVQSGSELKKPGSSVKVSCKASGGTSRSFAISWVRQAPGQGLEWMGGIIPIFGPANYAQKFQGRVTITADESTSTAYMELSSLRSEDTAVYYCARHAIAMGWGVITTNYFDSWGQGTMVTVSSASTKGPSVFPLAPCSRSTSESTAALGCLVKDYFPEPVTVSWNSGALTSGVHTFPAVLQSSGLYSLSSVVTVPSSSLGTKTYTCNVDHKPSNTKVDKRVGSQVQLQESGPGLVKPSETLSLTCTVSGGSISGYYWSWIRQPPGKGLEWIGYIYYSGSTNYNPSLKSRVTISVDTSKNQFSLKLNSVTAADTAVYYCARAPLHGDYKWFHPWGQGTLVTVSSASTKGPSVFPLAPCSRSTSESTAALGCLVKDYFPEPVTVSWNSGALTSGVHTFPAVLQSSGLYSLSSVVTVPSSSLGTKTYTCNVDHKPSNTKVDKRV[human IgG4 Fc with changes omitted here] light: [about 120 residues omitted here]"
2,binds,"multivalent antibody 281VL4-CH1(118-130)-281 (bispecific antibody, Anti-CD28 site N-terminal, anti-CD40 site C-terminal; N5KG4PE (IgG4) vector; Entries probably still carry signal peptides) heavy: EVQLVQSGSELKKPGSSVKVSCKASGGTSRSFAISWVRQAPGQGLEWMGGIIPIFGPANYAQKFQGRVTITADESTSTAYMELSSLRSEDTAVYYCARHAIAMGWGVITTNYFDSWGQGTMVTVSSASTKGPSVFPLAPQVQLQESGPGLVKPSETLSLTCTVSGGSISGYYWSWIRQPPGKGLEWIGYIYYSGSTNYNPSLKSRVTISVDTSKNQFSLKLNSVTAADTAVYYCARAPLHGDYKWFHPWGQGTLVTVSSASTKGPSVFPLAPCSRSTSESTAALGCLVKDYFPEPVTVSWNSGALTSGVHTFPAVLQSSGLYSLSSVVTVPSSSLGTKTYTCNVDHKPSNTKVDKRV[human IgG4 Fc with changes omitted here] light: [about 120 residues omitted here]"
3,binds,"multivalent antibody 281VL4-CH1(118-131)-281 (bispecific antibody, Anti-CD28 site N-terminal, anti-CD40 site C-terminal; N5KG4PE (IgG4) vector; Entries probably still carry signal peptides) heavy: EVQLVQSGSELKKPGSSVKVSCKASGGTSRSFAISWVRQAPGQGLEWMGGIIPIFGPANYAQKFQGRVTITADESTSTAYMELSSLRSEDTAVYYCARHAIAMGWGVITTNYFDSWGQGTMVTVSSASTKGPSVFPLAPCQVQLQESGPGLVKPSETLSLTCTVSGGSISGYYWSWIRQPPGKGLEWIGYIYYSGSTNYNPSLKSRVTISVDTSKNQFSLKLNSVTAADTAVYYCARAPLHGDYKWFHPWGQGTLVTVSSASTKGPSVFPLAPCSRSTSESTAALGCLVKDYFPEPVTVSWNSGALTSGVHTFPAVLQSSGLYSLSSVVTVPSSSLGTKTYTCNVDHKPSNTKVDKRV[human IgG4 Fc with changes omitted here] light: [about 120 residues omitted here]"
